Assay results published in PubChem BioAssay AID1347417 (National Center for Advancing Translational Sciences (NCATS), 2020).
The whole screen tested about 120,000 compounds, of which about 5,300 (4.4%) were called active. Inconclusive results, whose numbers are uncertain, are shown with a selection of clear calls. Calls come from the whole dose curve; as a rule, active = well fitted inhibition curve with a large enough effect; inconclusive = small, poorly fitted or top-dose-only effect; inactive = no such curve, though single readings can be large or run the other way. A potency beside an inconclusive call is a rough fit, not a confirmed value. The source holds several records for some structures; these can differ, active in one and inactive in another.
Potency is the fitted concentration of half-maximal effect; tags give direction and shape of the fitted curve.

Experiment: qHTS Primary assay for Inhibitors of Plasmodium falciparum Dd2 growth in vitro; note: nearly all actives have a fitted effect of over 65% in size
Settings: P. falciparum Dd2 growth, SYBR Green, 72 h; series mostly up to 28.9 µM
Procedure, shortened: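 Readout: SYBR Green fluorescence, 485 nm excitation, 535 nm emission, after ~16 h lysis at 37C. Before that, Dd2-infected red cells (2.5% hematocrit) grew 72 h with compound, 29 uM top final concentration.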
For COc1ccc(CSc2nc3ccncc3n2Cc2nc(-c3ccc(OC)c(OC)c3)oc2C)cc1, the Potency was inconclusive: 8.91 µM [inhibitor, partial curve, poor fit].
For O=S(=O)(c1ccccc1Cl)N1CCCC1c1nncn1C1CCCC1 (configuration not stated), the Potency was “inactive”.
For Cc1ccccc1C(=O)Nc1ccnn1C1CCN(C(=O)C2(N)CCC2)CC1, the Potency was “inactive”.
In the case of CCn1ccc2ccc(CN3CCCC(O)(CN4CCCC4)C3)cc21 (configuration not stated), the Potency is reported as inconclusive: 1.41 µM [inhibitor, full curve, poor fit].
In the case of O=C(Nc1ccc(-c2cccc(F)c2)cc1)C1CCCN1Cc1ccc(CO)o1 (configuration not stated), the Potency is reported as inconclusive: 17.8 µM [inhibitor, partial curve, poor fit].
With Oc1ccccc1CNC[C@H]1O[C@H](Cc2cc(CN3CCCCC3)on2)CC[C@@H]1O the Potency was inconclusive: 1.58 µM [inhibitor, full curve, poor fit].
In the case of Cc1cccc2sc(N(Cc3cccnc3)C(=O)C3CCCCC3)nc12, the Potency is reported as inconclusive: 14.1 µM [inhibitor, single point].
With O=C1C(OCC2CC2)C2(CCCCC2)N1C1CCN(Cc2cccnc2)CC1 (configuration not stated) the Potency was active: 8.91 µM.
For Cc1ccccc1C(=O)Nc1nc2c(s1)CC(C(C)(C)C)CC2 (configuration not stated), the Potency was active: 5.62 µM.
For COc1ccc(-c2c(C)c3ccc(O)c(CN4CCN(C)CC4)c3oc2=O)cc1OC, the Potency was inconclusive: 17.8 µM [inhibitor, single point].
In the case of O=C1NCCCCCCN(Cc2ccncc2)[C@@H]2CN(S(=O)(=O)c3ccc4c(c3)CCC4)CC[C@H]12, the Potency is reported as active: 2.82 µM.
For O=C(c1cnccn1)N1CC2CC(C1)[C@H]1CCCC(=O)N1C2 (some centres not stated), the Potency was “inactive”.
With CC1=C(C(=O)OC(C)C)C(c2ccccc2Cl)CC(=O)N1Cc1cc(F)cc(F)c1 (configuration not stated) the Potency was inconclusive: 2 µM [inhibitor, partial curve, poor fit].
With CC1=C(C(=O)OC(C)C)C(c2ccc([N+](=O)[O-])cc2)N2C(CC(=O)N3CCOCC3)=CSC2=N1 (configuration not stated) the Potency was “inactive”.
With CN1CCCC2(CC1)CCN(C(=O)c1c3c(nn1C)CCCC3)CC2 the Potency was inconclusive: 11.2 µM [inhibitor, partial curve, poor fit].
For CCOC(=O)c1cc(-c2ccccc2)n(CCC(=O)Nc2ccc(OC)c(Cl)c2)c1C, the Potency was inconclusive: 2.82 µM [inhibitor, full curve].
In the case of O=C1OC[C@@H]2CCN(Cc3ccc(Cl)cc3)Cc3ccc(F)cc3N12, the Potency is reported as inconclusive: 5.62 µM [inhibitor, single point].
For Cc1ccccc1-c1nc2c(c(SCc3cccc(Cl)c3)n1)Cc1c(CO)cnc(C)c1O2, the Potency was inconclusive: 10 µM [inhibitor, single point].
For COc1ccc(-c2cc(N3CCCN(C(=O)Cc4ccccc4Br)CC3)n[nH]2)cc1, the Potency was inconclusive: 1.41 µM [inhibitor, single point].
In the case of COc1ccc(N2C(=O)C3(CCCCC3)C2C(=O)NCCc2c(C)noc2C)cc1 (configuration not stated), the Potency is reported as inconclusive: 8.91 µM [inhibitor, single point].
For Cc1cnc(C(=O)N2CCc3onc(-c4ccc(F)c(F)c4)c3C2)cn1, the Potency was “inactive”.
In the case of CCS(=O)(=O)N1CCc2cc(C(=O)N3CCN(c4ccccc4)CC3)ccc21, the Potency is reported as inconclusive: 3.98 µM [inhibitor, partial curve].
In the case of O=C(NC1CCCN(c2nc3ncccc3o2)C1)c1cccc(Cl)c1 (configuration not stated), the Potency is reported as inconclusive: 1.58 µM [inhibitor, partial curve, poor fit].
With CN(Cc1ccccc1)C(=O)C[C@@H]1O[C@H](CNC(=O)c2ccc(F)c(Cl)c2)[C@@H](O)[C@H]1O the Potency was “inactive”.
In the case of O=C(c1ccccc1)N1CCC(NCCOc2ccccc2F)CC1, the Potency is reported as inconclusive: 11.2 µM [inhibitor, single point].
With CN(Cc1cn(C)c2ccccc12)C1CCc2nn(CC3CC3)c(=O)n2CC1 (configuration not stated) the Potency was active: 5.01 µM.
With O=C(NCc1nnc2ccc(-c3ccccc3)nn12)c1cc(Cl)ccc1F the Potency was inconclusive: 0.501 µM [inhibitor, full curve].
For O=C(C1CCC1)N1CCC(Oc2cccc(F)c2)C1 (configuration not stated), the Potency was inconclusive: 17.8 µM [inhibitor, single point].
In the case of COc1cccc(OCC2CN(Cc3cccc(C(F)(F)F)c3)C(=O)c3c(ccnc3-c3ccc(OCC(=O)O)cc3)O2)c1OC (configuration not stated), the Potency is reported as “inactive”.
In the case of O=C1NC(=NC2CCCC2)C2(CCCN([S+](=O)([O-])c3cccc(C(F)(F)F)c3)C2)N1c1cc(F)cc(F)c1 (configuration not stated), the Potency is reported as active: 10 µM.
With O=C1CCN(Cc2ccncc2)CCCC(C(=O)NCC2CC2)CCN1 (configuration not stated) the Potency was “inactive”.
With C[C@H](N)C(=O)N1CCC(n2nccc2NC(=O)c2ccc3c(c2)OCO3)CC1 the Potency was “inactive”.
For CCC(C)NC(=O)CN1C(=O)NC2(CCC(C)CC2)C1=O (configuration not stated), the Potency was inconclusive: 1 µM [inhibitor, partial curve, poor fit].
For CCOc1ccccc1C(=O)N1CCN(c2cc(-c3ccc(Cl)cc3)[nH]n2)CC1, the Potency was inconclusive: 3.55 µM [inhibitor, full curve].
With Cc1cccc(CC(=O)N2CC(N(Cc3ccccc3)C3CCOCC3)C2)c1 the Potency was inconclusive: 3.98 µM [inhibitor, full curve, poor fit].
For CCOc1ccc(-c2cc3c(=O)n(CC(O)c4ccc(C(C)C)cc4)ccn3n2)cc1 (configuration not stated), the Potency was “inactive”.
With COc1ccc(C)cc1NC(=O)c1ccc2c(c1)N(Cc1cccc(Cl)c1)C(=O)c1ccccc1S2=O (configuration not stated) the Potency was active: 7.94 µM.
For CCC1Oc2ccc(NC(=O)c3ccccc3Cl)cc2CN(Cc2ccccc2F)C1=O (configuration not stated), the Potency was inconclusive: 8.91 µM [inhibitor, partial curve, poor fit].
With O=C(Cn1ccn2nc(-c3ccc(F)cc3)c(CO)c2c1=O)Nc1ccccc1 the Potency was “inactive”.
With Cc1cccc(CC(=O)N2[C@H]3CC[C@@H]2c2cnc(-c4ccc(F)cc4)nc2C3)c1 the Potency was inconclusive: 7.08 µM [inhibitor, partial curve, poor fit].
With O=C(Nc1ccc(F)cc1)c1ccc2c(c1)OCCN(C1CCC1)C2 the Potency was inconclusive: 3.98 µM [inhibitor, full curve, poor fit].
In the case of CCn1cc(-c2ccc(Cl)cc2)cc1C(=O)NCc1ccncc1, the Potency is reported as “inactive”.
